In US20260167731A1:

Columns and labels:
hCCR8 SNAP-tag (human) = hCCR8 SNAP-tag (human) (UniProt P51685); assay: HTRF Tag-lite, inhibition of hCCL1-AF647 binding to SNAP-tag hCCR8 on HEK-293
human CCR8 (human) = human CCR8 (human) (UniProt P51685); assay: flow cytometry, inhibition of hCCL1-AF647 binding to hCCR8 CHO cells

## murine anti-human CCR8 monoclonal antibody L263G8
hCCR8 SNAP-tag (human)
  IC50: 0.14 µg/mL and 0.96 nM [columns of one line]
  Ki: 0.07 µg/mL and 0.48 nM [columns of one line]
Human CCR8 (human)
  IC50: 0.4 µg/mL and 2.7 nM [columns of one line]

A number of entries come with more than one value. They are shown here; other results are not. An entry can have further records. The values listed for one entry appear to be repeats (runs, samples, wells or individuals).
